Results as given in PubChem BioAssay AID1240 (Sanford-Burnham Center for Chemical Genomics, 2008).
The whole screen tested about 50,000 compounds, of which about 800 (1.6%) showed an effect of 50% or more. This is one part of the list.

What follows are compounds tested against Bcl-2-like protein 10 (Homo sapiens) (UniProt Q9HD36) (assay: Phenotype converters, Bcl-B/TR3 peptide binding displacement, primary biochemical FP (AID 1240;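 note: 0% = Bcl-B with tracer peptide and DMSO and 100% = tracer peptide lacking Bcl-B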)). Conditions: GST-Bcl-B / FITC-TR3 peptide fluorescence polarization; stronger effect = higher value; compound at 3.75 mg/L.
Chain of UniProt Q9HD36 (Q9HD36 whole entry, looked up): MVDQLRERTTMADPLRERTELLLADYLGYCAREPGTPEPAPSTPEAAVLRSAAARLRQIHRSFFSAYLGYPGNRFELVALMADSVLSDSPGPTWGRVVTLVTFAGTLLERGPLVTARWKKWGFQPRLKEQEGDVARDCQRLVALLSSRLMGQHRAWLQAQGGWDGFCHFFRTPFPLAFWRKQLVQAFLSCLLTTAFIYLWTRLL

Structure (SMILES)	displacement [%]
Cc1cccc(C(=O)Nc2sc3c(c2C(=O)N2CCOCC2)CCCCC3)c1	2.3
C=CCNC(=O)CN(c1ccc(C)c(Cl)c1)S(C)(=O)=O	-13.4
O=C(O)c1ccccc1C(=O)n1cnc2ccccc21	-4.5
O=C(COc1cccc(Cl)c1)N/N=C/c1cc(Br)cc(I)c1O	23.6
CCOc1ccc(C(=O)NCC2OCCc3ccccc32)cc1 (stereo not given)	-4.1
Cc1ccc(-c2cc(C(F)(F)F)n3nc(-c4ccccc4)cc3n2)cc1	43.8
N#C/C(=C\c1ccc(OCc2ccccc2)cc1)c1nc(-c2ccccc2)cs1	7.6
CCSc1nc2sc3c(c2c(=O)n1Cc1ccccc1)CCc1ccccc1-3	-11.5
CC1CCCCN1c1ccc(C(=O)c2ccccc2)cc1F (stereo not given)	-2.4
O=C(Nc1nnc(-c2ccccc2)s1)c1ccco1	1.2
Cc1ccccc1CN1CCN(S(C)(=O)=O)CC1	9.5
O=C(NCc1ccco1)C(=O)Nc1cccc(C(F)(F)F)c1	12.3
COc1ccc(C(=O)N2CCOCC2)cc1I	-3.9
CCOC(=O)c1c(NC(=O)Oc2ccccc2)sc2c1CCC(C)C2 (stereo not given)	-13.6
COc1ccccc1NC(=O)C(=O)NNC(=O)c1cccc(Cl)c1	-8
Cc1c(O)ccc2c1oc(=O)c1ccccc12	-8.3
COc1cccc(CCNC2CC(=O)N(c3ccc(C)cc3)C2=O)c1 (stereo not given)	2.3
Cc1ccc(N(CC(=O)N(Cc2ccccc2)Cc2ccccc2)S(C)(=O)=O)cc1	-7.5
C#CCOc1c(Br)cc(/C=C2\C(=O)NC(=O)N(c3cc(C)cc(C)c3)C2=O)cc1OC	-80.6
COc1ccccc1NC(=O)C1C2C3CCC(C3)C12 (stereo not given)	-0.3
CC1=C(C)CC2C(=O)N(c3ccc(N4CCCCC4)cc3)C(=O)C2C1 (stereo not given)	-24.4
O=C(COc1ccc2ccccc2c1)N1CCN(C(=O)c2ccc([N+](=O)[O-])cc2)CC1	-12.7
COc1ccccc1OCCNc1nc2c(c(=O)n(C)c(=O)n2C)n1C	-5.3
Cc1ccc(OCC(=O)Nc2ccc(-c3nc4ncccc4o3)cc2)c(C)c1	-19.4

Structure (SMILES)	displacement [%]
COc1ccc2ccccc2c1C=Nc1ccc([N+](=O)[O-])cc1	-6.6
Cc1sc2nc(SCC(=O)NCCCO)n(-c3ccccc3)c(=O)c2c1C	4.3
CCCOc1ccc(N2C(=O)CC(N3CCN(Cc4ccc5c(c4)OCO5)CC3)C2=O)cc1 (stereo not given)	9.8
C=CCN1C(=O)/C(=C\c2ccc(OC)c(OC)c2OC)C(=O)NC1=S	1.2
Cc1cc(Br)c(-c2ccc(/C=C3/NC(=S)NC3=O)o2)cc1C	-36.3
Cc1ccc(OCC(=O)Oc2ccc(C(=O)c3ccccc3)cc2C)c(C)c1	8.7
COc1cc(/C=C2/SC(NC(C)=O)=NC2=O)cc(OC)c1OC	31.2
O=C(Nc1cccc2nsnc12)c1ccccc1Br	20.9
COc1ccc2ccccc2c1/C=C1\SC(=O)N(c2ccccc2)C1=O	4.4
COc1ccc2c(c1OC)C(=O)N(c1cccc(F)c1)C2	-7.2
CS(=O)(=O)N1CCN(c2ccc([N+](=O)[O-])c(NCc3ccccc3)c2)CC1	15.2
O=C(CSc1ccccn1)c1ccc(-c2ccccc2)cc1	3.5
CC(C)c1ccc(/C=C/C(=O)Nn2cnnc2)cc1	-4.8
Cc1ccc(NC(=O)Nc2cc(C)ccn2)cc1	-6.8
C=CCN1C(=O)c2ccccc2C1(O)c1ccc(C)cc1 (stereo not given)	-9.7
COC(=O)c1cccc(NC(=O)c2cc[n+]([O-])cc2)c1	-0.4
CC12C(=O)C(C)(C(c3ccccc3)=C1c1ccccc1)C1C(=O)N(c3ccc([N+](=O)[O-])cc3)C(=O)C12 (stereo not given)	7.8
CCOc1ccc2nc(NC(=O)c3cccc(Cl)c3)sc2c1	10.9
CC1(C)CC(NC(=O)c2ccccc2C(=O)O)CC(C)(C)N1	5.6
CC(C)CN1C(=O)/C(=C/c2cccs2)SC1=S	6.4
Cc1cc(=O)oc2cc(OC(=O)CCCOc3ccc(Cl)cc3Cl)ccc12	-0.8
Cc1ccc2nsnc2c1NC(=O)/C=C/c1cccc([N+](=O)[O-])c1	4.3
Cc1ccccc1NC(=O)c1cc(-c2ccccc2)nc2c(Cl)cccc12	-13.6
COc1ccc(C(=O)N2CCN(Cc3cc(OC)c(O)c(OC)c3)CC2)cc1	-4.6

Structure (SMILES)	displacement [%]
COc1ccc(-c2cn3ccccc3n2)cc1Br	11.7
CC1(C)C(c2ccco2)=[N+]([O-])C2(CCCCC/C2=N\O)N1O (stereo not given)	0.4
O=C(/C=C/c1cccc([N+](=O)[O-])c1)Nc1ccc(I)cc1Cl	-0.1
O=C1NC(=O)/C(=C\c2ccc(Br)cc2)S1	8.9
COc1ccc(OC)c(NS(=O)(=O)c2c(C)cc(C)cc2C)c1	-9
Cc1ccc(NC(=O)C2CCC(C)(C(=O)NN)C2(C)C)cc1 (stereo not given)	-5.7
CC(=O)n1c(SCC(=O)Nc2ccccc2)nc2ccccc21	-9
O=C(c1ccc(Br)cc1)c1ccc2c(c1)OCCCO2	5.6
Cc1cccc(/C(N)=N/OC(=O)c2ccc(I)cc2)c1	3.2
COc1ccc(N2C(=O)NC(=O)/C(=C/c3ccc(OCCOc4ccc(C)cc4)c(OC)c3)C2=O)cc1	12.8
O=C1/C(=C/c2ccco2)SC(=S)N1CCc1ccccc1	32.4
COc1ccc(-c2cc(C(=O)NN=Cc3c(O)ccc4ccccc34)[nH]n2)cc1	-12.2
COc1ccc(NS(=O)(=O)c2cccc([N+](=O)[O-])c2)c(OC)c1	-8.7
COc1cc(/C=C2\SC(=S)N(c3ccc([N+](=O)[O-])cc3)C2=O)ccc1OC(=O)C12CC3CC(CC(C3)C1)C2	11.4
COC(=O)c1ccc(Cl)c(NC(=O)NC(c2ccccc2)c2ccccc2)c1	12.4
CCOc1ccc(N(CC(=O)Nc2ccc3c(c2)OCO3)S(C)(=O)=O)cc1	9.4
COC(=O)c1ccc(NC2=C(Cl)C(=O)c3ccccc3C2=O)cc1	0.7
CCCc1nnc(NC(=O)Nc2ccc(Cl)cc2)s1	-2.9
Cc1ccc(C(=O)Nc2ccccc2C(=O)Nc2nc3ccccc3n2C)cc1	-6.8
CCCCN(CCCC)C(=O)c1cccc([N+](=O)[O-])c1C	-11
S=C(NCC(c1ccccc1)c1ccccc1)Nc1ccc(Cl)cc1	-10.5
NC(=O)c1cccc(NC(=O)c2ccc(-c3ccccc3)cc2)c1	-2.8
